This is one part of the list.

The results in this text go back to a collection of fitness landscapes (doi:10.1126/science.1257360).

To fix the notation:
B1: PhoQ; a variant is named by its letters at X, in order, P23837 (parent)
chain: MKKLLRLFFPLSLRVRFLLATAAVVLVLSLAYGMVALIGYSVSFDKTTFRLLRGESNLFYTLAKWENNKLHVELPENIDKQSPTMTLIYDENGQLLWAQRDVPWLMKMIQPDWLKSNGFHEIEADVNDTSLLLSGDHSIQQQLQEVREDDDDAEMTHSVAVNVYPATSRMPKLTIVVVDTIPVELKSSYMVWSWFIYVLSANLLLVIPLLWVAAWWSLRPIEALAKEVRELEEHNRELLNPATTRELTSLVRNLNRLLKSERERYDKYRTTLTDLTHSLKTPLXXLQXXLRSLRSEKMSVSDAEPVMLEQISRISQQIGYYLHRASMRGGTLLSRELHPVAPLLDNLTSALNKVYQRKGVNISLDISPEISFVGEQNDFVEVMGNVLDNACKYCLEFVEISARQTDEHLYIVVEDDGPGIPLSKREVIFDRGQRVDTLRPGQGVGLAVAREITEQYEGKIVAGESMLGGARMEVIFGRQHSAPKDE

Variants of B1 are the subject of this experiment. Description: enrichment ratio after two sorts for PhoP signalling (ratio (wild type AVST 3.29)); higher = more functional. As to conditions: with PhoP (E. coli).
In the case of IMIK, the enrichment ratio is no more than 0.25. With NLQE the figure was no more than 0.25; with PHLG, no more than 0.25.

TFFW: the enrichment ratio is no more than 0.25. The figure for ESFW is no more than 0.25. The figure for QVQL is no more than 0.25. As to FEQC, the enrichment ratio is no more than 0.25. Regarding RVLN, the enrichment ratio is no more than 0.25. Take HCFQ: the enrichment ratio was no more than 0.25. With QHPF the figure was no more than 0.25; with VMYW, no more than 0.25.

On to MQFF, for which the enrichment ratio amounted to 1.63.

With ENFY, the enrichment ratio is no more than 0.25. The figure for RSSN is no more than 0.25. The figure for MFHG is no more than 0.25; for VQWE it is no more than 0.25.

On to ANFG, for which the enrichment ratio is no more than 0.25. In the case of KIDK, the enrichment ratio is no more than 0.25. With KHGG the figure was no more than 0.25; with ETMI, no more than 0.25. With TQNY the figure was 6.18; with HQFK, no more than 0.25. Take DLNY: the enrichment ratio is no more than 0.25. On to EFES, for which the enrichment ratio is no more than 0.25. The figure for KFHL is no more than 0.25; for TFLL it is 3.21. With TWVV the figure was no more than 0.25; with RDQG, no more than 0.25; with TTLE, 8.73.

As for SANP, the enrichment ratio was no more than 0.25. The figure for WKME is no more than 0.25; for PHIT it is no more than 0.25.

Consider ARPV, for which the enrichment ratio was no more than 0.25. For the variant FKCA, the enrichment ratio was no more than 0.25.

Consider TGKE, for which the enrichment ratio was no more than 0.25. Regarding KCTF, the enrichment ratio was no more than 0.25. The figure for EHAT is no more than 0.25; for FFCI it is no more than 0.25; for YVFG it is no more than 0.25. With REIS the figure was no more than 0.25; with MFFT, no more than 0.25.

In the case of AQSY, the enrichment ratio was 12.7. The figure for GLDI is no more than 0.25. As to IRDD, the enrichment ratio was no more than 0.25. The figure for MSFR is no more than 0.25.

As to YNGS, the enrichment ratio was no more than 0.25. The figure for VGAE is no more than 0.25; for TSVI it is 3.09. With WQCC the figure was no more than 0.25; with RFVF, no more than 0.25; with WWVC, no more than 0.25. The figure for PMTG is no more than 0.25; for IDTG it is no more than 0.25; for QVSW it is no more than 0.25.

Turning to HHRV, the enrichment ratio is no more than 0.25. As to VWSN, the enrichment ratio is no more than 0.25. With KSWC the figure was no more than 0.25. The figure for ERMA is no more than 0.25. Turning to FKHP, the enrichment ratio is no more than 0.25. The figure for DFIP is no more than 0.25; for TRVC it is no more than 0.25; for SERN it is no more than 0.25.

On to EYCG, for which the enrichment ratio was no more than 0.25. The figure for LYIK is no more than 0.25; for KGIM it is no more than 0.25; for LPRI it is no more than 0.25. The figure for HVAA is no more than 0.25; for NDMK it is no more than 0.25. For the variant NVKY, the enrichment ratio was no more than 0.25. In the case of DVTS, the enrichment ratio is no more than 0.25. The figure for MSVQ is no more than 0.25. As for RDSR, the enrichment ratio is no more than 0.25.

Take FVEG: the enrichment ratio was no more than 0.25. The figure for LSRQ is no more than 0.25.

As to NEYQ, the enrichment ratio was no more than 0.25. The figure for YTER is no more than 0.25. The figure for MEDA is no more than 0.25. With KDLQ the figure was no more than 0.25; with LTNV, no more than 0.25. Regarding MLIS, the enrichment ratio was no more than 0.25. With MQIA the figure was no more than 0.25; with SVRK, no more than 0.25; with RTKD, no more than 0.25. The figure for KTSR is no more than 0.25.

As for LWLG, the enrichment ratio was no more than 0.25. Turning to FMQA, the enrichment ratio is no more than 0.25. With FLPR the figure was no more than 0.25; with WYVY, no more than 0.25. As to DSLG, the enrichment ratio was no more than 0.25.

For the variant PKPE, the enrichment ratio was no more than 0.25. With GHPQ the figure was no more than 0.25. The figure for PSID is no more than 0.25; for RPSW it is no more than 0.25. On to KERG, for which the enrichment ratio is no more than 0.25.

For SEIR, the enrichment ratio worked out at 0.869. Turning to GPSA, the enrichment ratio is no more than 0.25.

In the case of PYYL, the enrichment ratio is no more than 0.25. Consider NLVG, for which the enrichment ratio is no more than 0.25. The figure for IEGN is no more than 0.25. With LNQA the figure was no more than 0.25; with EAGA, no more than 0.25.

Regarding SGTY, the enrichment ratio stood at 3.74. With AYPY the figure was no more than 0.25. The figure for DQMP is no more than 0.25; for NGNP it is no more than 0.25; for MFCI it is no more than 0.25. With FIMI the figure was no more than 0.25; with IFMK, no more than 0.25; with RDDY, no more than 0.25. In the case of TPIP, the enrichment ratio is no more than 0.25. With TEAT the figure was 17; with FTMS, 0.361; with LVHA, no more than 0.25. With YQSE the figure was no more than 0.25. Regarding NMAS, the enrichment ratio was no more than 0.25. With ACRT the figure was no more than 0.25; with VMIF, no more than 0.25; with NTSK, no more than 0.25.

Regarding GWPM, the enrichment ratio is no more than 0.25.

Consider RRKS, for which the enrichment ratio is no more than 0.25. Turning to FMIM, the enrichment ratio is no more than 0.25. On to LFAM, for which the enrichment ratio was no more than 0.25. The figure for TGSL is 16.8. With NSEF the figure was no more than 0.25; with TWHY, no more than 0.25.

For VTMS, the enrichment ratio was no more than 0.25. On to ICNG, for which the enrichment ratio is no more than 0.25. With KSEH the figure was no more than 0.25; with PLEN, no more than 0.25; with AANG, no more than 0.25. With FLHY the figure was no more than 0.25; with TCGH, 23.5; with LFTT, no more than 0.25.

Regarding KMVH, the enrichment ratio is no more than 0.25. For the variant EPEK, the enrichment ratio is no more than 0.25. The figure for TEIL is 4.44; for FQYT it is no more than 0.25; for DMDT it is no more than 0.25.

FETP: the enrichment ratio was no more than 0.25. With NQSL, the enrichment ratio is no more than 0.25. With MAEF, the enrichment ratio is no more than 0.25.

Regarding NRCP, the enrichment ratio is no more than 0.25.

For GKQQ, the enrichment ratio was no more than 0.25.

RFRG: the enrichment ratio is no more than 0.25. The figure for AQPN is no more than 0.25. Regarding RGVP, the enrichment ratio was no more than 0.25. With HNRK the figure was no more than 0.25; with AQCL, 16; with PPTL, no more than 0.25. The figure for EITI is no more than 0.25; for LLLM it is no more than 0.25; for VPRA it is no more than 0.25.

Consider PKQC, for which the enrichment ratio was no more than 0.25.
